T1: UNK ZnF1-3 (human, UniProt Q9C0B0 31-174)
T1 sequence: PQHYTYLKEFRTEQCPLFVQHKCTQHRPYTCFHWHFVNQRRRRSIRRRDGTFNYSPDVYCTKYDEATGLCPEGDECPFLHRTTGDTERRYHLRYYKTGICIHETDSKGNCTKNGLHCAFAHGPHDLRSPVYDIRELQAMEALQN

B1: 110098843_110100180_2223_3pUTR_ENSMUSG00000032481_ENSMUST00000088716|mouse|control|control (ssRNA)
RNA: GGGAGUUCUACAGUCCGACGAUCCUUCAACCAAUUCCAGGGGUACUUCUUCUCGGACACGAGAAAACUCCUCCAACGCUGCUUUUGCUGCAGCAGAUGCUACACGGGGGUCAACGACAGAUGCUAAAAAGGCAACAGUGCUCACAACAGAGGAUUGAGCAUCA
B2: chrX:71482573:71482574:-_ENSMUSG00000031328_ENSMUST00000144429|mus_mus|motif|central (ssRNA)
RNA: GGGAGUUCUACAGUCCGACGAUCCUCCCACUGAAAAUGGACUCUUGGGGAUGUGAUCUCCUCCAUAAGUGACAUUGACACCGGCUGGGCCCUGCUGCACAGGAAUGUACUUGACUGUGUAGGUAUUAUCAUGGUGGUCAAUGACAACAGAGGAUUGAGCAUCA
B3: chr3:107877451:107877452:-_ENSMUSG00000027889_ENSMUST00000078912|mus_hu|FALSE|FALSE (ssRNA)
RNA: GGGAGUUCUACAGUCCGACGAUCGCCCCGUGCCCACAGCAGAGGUGUAGAGGUCCCCCGCCUGCCCCUCGGCUACAUGAACAAGACAGGGGCCUAAACUUCGGCCCUGGCCAAGGCUUAGAUUUGCCCAGGAAGGACCGGAAACAACAGAGGAUUGAGCAUCA
B4: 30676126_30679462_2817_CDS_ENSG00000137337_ENST00000376406|human|control|control (ssRNA)
RNA: GGGAGUUCUACAGUCCGACGAUCUAGGGUACCUGUUGUCUGGAAGCUGCAAUGGGAAGGGCCAAGCUCUUGGGGUGGAGUCAACAUGAAGGCCUGGGUAGGUUCAUCCUCCAUGCUCUGGACUGCUUCCAGGCCCUGAUUCUCCAACAGAGGAUUGAGCAUCA
B5: chr7:135832182:135832183:+_ENSMUSG00000042105_ENSMUST00000118605|mus_mus|FALSE|FALSE (ssRNA)
RNA: GGGAGUUCUACAGUCCGACGAUCGACAAUGGUCGCAUAAAAAGCGCUGUCUUCCGGGGACAUUAACAUCAAGCUUUGGAAAAGAAGUAAUUUACAGGAAAAAUACAGCCCCACUGGCACUUUAACCAUAAGUCCUGCAAAAAGCAACAGAGGAUUGAGCAUCA
B6: chr3:176767854:176767855:-_ENSG00000177565_ENST00000430069|hu_hu|hu_hu_hu_mus_False|58_88 (ssRNA)
RNA: GGGAGUUCUACAGUCCGACGAUCGACAUCCUUGUUACUGGGCACGUCUUGCCCUCCUUCCCGUAUGCAGUGUCUAAGUACUAACUGCGUAGGGCCACUCGUGCUGUUCUCACUGAGGUUCCAGAUUCUUGCCGUGGAGUCUCCCAACAGAGGAUUGAGCAUCA

Some of the results follow.

The experiment has as its target T1, UNK ZnF1-3. The experiment in a line: nsRBNS (natural sequence RNA bind-n-seq); RBNS binding buffer (assumed for nsRBNS): 25 mM Tris pH 7.5, 150 mM KCl, 3 mM MgCl2, 0.01% Triton X-100, 500 ug/ml BSA, 20 U/ml SUPERase-In, 4 C; UNK is unkempt and MSI1 is Musashi-1; names of the RNAs are library labels; protein concentration not given here; high values mean tight binding.
B1 gave a binding signal of 0.864 enrichment R. With B2, the binding signal was 0.906 enrichment R. As to B3, the binding signal was determined as 0.865 enrichment R.

In turn, B4 gave a binding signal of 0.679 enrichment R. B5 gave a binding signal of 1.86 enrichment R. On to B6, for which the binding signal worked out at 0.575 enrichment R.

(Values after PMC12136788.)
